Among all 420,000 compounds or so, about 50,000 (12%) were called active. The shares of active, inactive and inconclusive entries below differ from those in the screen. Calls follow the shape of the dose curve; as a rule, active = well fitted inhibition curve with a large enough effect; inconclusive = small, poorly fitted or top-dose-only effect; inactive = flat fitted curve, though single readings scatter. No potency is given beside an inconclusive call; the fits are too rough.
Assay: qHTS for Inhibitors of human tyrosyl-DNA phosphodiesterase 1 (TDP1): qHTS in cells in presence of CPT; also: nearly all actives have a fitted effect of over 55% in size
Conditions: chicken DT40 Tdp1-/-;hTDP1 cells + 20 nM CPT, ATP luminescence, 48 h; activity change, negative = growth inhibition: at 46.2 µM (top of the series) unless noted
Outline: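 Chicken DT40 Tdp1-/- cells complemented with human TDP1, 400 cells/well, exposed to compounds plus 20 nM camptothecin for at least 48 h at 37 C; viability read as ATP content by CellTiter-Glo luminescence.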
% is scaled to controls: 0 for no effect and ±100 for the full control effect; potency is read from the fitted curve at half-maximal effect; tags tell the direction and shape of the fitted curve.

SMILES | activity change, negative = growth inhibition | Potency
Cc1ccc(S(=O)(=O)N2CCC(C(=O)NCc3ccncc3)CC2)cc1 | inactive: -3.43% | 
Cc1ccc(C(=O)c2cncc(Br)c2)cc1 |  | inconclusive [inhibitor, partial curve]
Cc1c(CNCCCc2ccccc2)c(C(=O)O)c(C)n1Cc1cccc(Cl)c1 |  | inconclusive [inhibitor, single point]
Cc1ccc2c(CC(=O)OCC(=O)N(CC(C)C)c3c(N)n(Cc4ccccc4)c(=O)[nH]c3=O)coc2c1 |  | inconclusive [inhibitor, single point]
Cc1ccc(S(=O)(=O)N2CCCOC2CNC(=O)C(=O)NCc2ccccc2C)cc1 (stereo unspecified) | inactive: 2.28% | 
O=C(NNC(=O)c1ccncc1)Nc1cccc(C(F)(F)F)c1 | inactive: -3.2% | 
CC(C)(C)c1nc2ccc(NS(=O)(=O)c3ccc(F)c(F)c3F)cc2[nH]1 | inactive: -5.71% | 
CC1(C)CC(=O)C(C(C2=C(O)CC(C)(C)CC2=O)c2cccs2)C(=O)C1 (stereo unspecified) |  | inconclusive [inhibitor, single point]
Cn1c(=O)c2c(nc(N3CCN(c4ccccn4)CC3)n2Cc2ccccc2Cl)n(C)c1=O |  | inconclusive [inhibitor, partial curve, poor fit]
O=C(CCN1CCC(c2ccc(Cl)s2)=N1)c1ccc(Cl)s1 |  | inconclusive [inhibitor, single point]
O=C(O)c1ccc(N/N=C/c2ccc(-c3ccc(Cl)cc3Cl)o2)cc1 |  | active: 16.4 µM
CC(C)c1ccc(OCC(=O)Nc2ccc3oc(=O)ccc3c2)cc1 | inactive: 11.2% | 
O=C1C2C(c3ccccc3)C=CC(c3ccccc3)C2C(=O)N1CCO (stereo unspecified) |  | inconclusive [inhibitor, single point]
CCC(=O)Nc1nc(C)c(-c2csc(Nc3ccccn3)n2)s1 |  | inconclusive [inhibitor, single point]
COc1ccc(S(=O)(=O)c2cn(C)c3cc(N4CCOCC4)c(F)cc3c2=O)cc1 |  | inconclusive [inhibitor, single point]
Cc1ccc(NS(=O)(=O)c2ccc3[nH]c4c(c3c2)CCCCC4)cc1 |  | inconclusive [inhibitor, single point]
Cc1c(C(=O)Nc2ccccc2F)cnn1-c1ccccc1 |  | inconclusive [inhibitor, partial curve]
CC(=O)Nc1cccc(NS(=O)(=O)c2cn(C)c(=O)n(C)c2=O)c1 | inactive: 0.33% | 
CC(C)NC(=O)CSc1ncccc1-c1nc2ccccc2[nH]1 | inactive: -2.68% | 
O=C(NCCCCCCNC(=O)C1CCCC1)C1CCCC1 |  | inconclusive [inhibitor, full curve]
COc1ccc2c(c1)S/C(=C\C(=O)c1ccncc1)N2C |  | inconclusive [inhibitor, single point]
Cc1ccc(CNC(=O)COc2cccc3c2OC(C)(C)C3)cc1 |  | inconclusive [inhibitor, single point]
O=S(=O)(NCCc1ccccn1)c1ccc(-c2ccccn2)s1 |  | inconclusive [inhibitor, single point]

SMILES | activity change, negative = growth inhibition | Potency
CCCCOC(=O)C(C#N)c1nc2ccccc2nc1N1CCN(Cc2ccc3c(c2)OCO3)CC1 (stereo unspecified) |  | active: 16.4 µM
Cc1ccc(S(=O)(=O)N[C@H]2CCC[C@@H]2O)cc1 | inactive: 23.7% | 
CCc1ccc(OCC(=O)Nc2ccc3oc(-c4ccc(OC)cc4)nc3c2)cc1 |  | inconclusive [inhibitor, single point]
Cc1cccnc1NC(=O)CSc1nnc(Cc2ccccc2)o1 |  | inconclusive [inhibitor, single point]
COCC(=O)OCC(=O)c1cc(C)n(-c2ccc(Br)cc2)c1C |  | inconclusive [inhibitor, single point]
CCC(=O)Nc1cccc(C(=O)/C=C/c2cc(Br)ccc2OC)c1 |  | active: 2.91 µM
CCCCN1CN(Cc2ccccc2)CNC1=S |  | active: 18.4 µM
CCc1ccc(OCC(=O)Nc2ccc(Cl)c(-c3nc4ncccc4o3)c2)cc1 |  | inconclusive [inhibitor, single point]
Cc1ccc(NC(=O)Nc2ccccc2F)cc1S(=O)(=O)N1CCOCC1 |  | inconclusive [inhibitor, single point]
COc1ccc(Cc2nc3ccc(C(=O)NCC(C)(C)OC)cc3o2)cc1 |  | inconclusive [inhibitor, single point]
CC1(C)CC2CC(C)(CN2C(=O)COC(=O)c2ccc(Cl)c(N)c2)C1 (stereo unspecified) | inactive: -11% | 
CCC1(c2ccccc2)NC(=O)N(CC(=O)Nc2ccccc2C(=O)NC2CCCC2)C1=O (stereo unspecified) | inactive: -29.4% | 
CCCNC(=O)C(Cc1cccc(C#N)c1)NC(=O)c1cccc([N+](=O)[O-])c1 (stereo unspecified) | inactive: -22.4% | 
CN(C1=C(NC(=O)c2ccc(Cl)cc2)C(=O)c2ccccc2C1=O)c1ccccc1 |  | active: 5.8 µM
CCOC(=O)C1=C(C)C(c2cccc(Oc3ccccc3)c2)NC(=S)N1 (stereo unspecified) |  | inconclusive [inhibitor, single point]
Cc1ccc(C)c(N(C)S(=O)(=O)c2ccc3[nH]cc(C(=O)NC4CCCC4)c(=O)c3c2)c1 |  | inconclusive [inhibitor, single point]
CN(C)c1nc(OCCNC(=O)Nc2ccccc2)nc(N(C)C)n1 | inactive: -4.81% | 
COc1cc(-c2noc(C)c2C#Cc2nccn2C)cc(OC)c1OC |  | active: 16.4 µM
Cc1cccc(NCC(=O)N/N=C/c2cccc(Br)c2)c1 |  | inconclusive [inhibitor, single point]
O=C(COC(=O)c1cccc2c1C(=O)c1ccccc1C2=O)NC1CCCCC1 |  | inconclusive [inhibitor, single point]
CN(CC(=O)Nc1cccc(F)c1)C(=O)c1cc([N+](=O)[O-])ccc1N1CCCCC1 |  | inconclusive [inhibitor, single point]
NC1=NC(=O)/C(=C/c2cn(CCC(=O)O)nc2-c2ccc(Cl)cc2)S1 | inactive: -16.7% | 
Cc1nnc(-c2cccc(Br)c2)c2cn(-c3ccc(Br)cc3)nc12 |  | inconclusive [inhibitor, single point]
